Measured values as given in PubChem BioAssay AID1460 (National Center for Advancing Translational Sciences (NCATS), 2008).
Values joined by “and” are separate entries in the source; they are usually repeats but may differ in a detail not shown here. Equal entries are not always repeated. The campaign covered roughly 270,000 compounds. About 5,800 (2.1%) were called active. Inconclusive results, whose numbers are uncertain, are shown with a selection of clear calls. Calls follow the shape of the dose curve; as a rule, active = well fitted inhibition curve with a large enough effect; inconclusive = small, poorly fitted or top-dose-only effect; inactive = flat fitted curve, though single readings scatter. Where the call is inconclusive, the potency comes from a doubtful curve fit.

These compounds were tested against Microtubule-associated protein tau (Homo sapiens) (UniProt P10636) (assay: qHTS for Inhibitors of Tau Fibril Formation, Thioflavin T Binding). Settings: recombinant tau K18 P301L, heparin-induced fibrillization, ThT fluorescence; series mostly up to 57.4 µM.
Outline: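 Fibril formation assay: tau K18 P301L at 15 uM with trace Alexa 594 label, heparin inducer 20 uM, pH 7 sodium acetate buffer, 37 C for 6 hr; endpoint ThT signal.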
% is scaled to controls: 0 for no effect and ±100 for the full control effect; potency is read from the fitted curve at half-maximal effect; tags tell the direction and shape of the fitted curve.
Also: nearly all actives have a fitted effect of over 55% in size.

Chain of UniProt P10636 (P10636 whole entry, looked up): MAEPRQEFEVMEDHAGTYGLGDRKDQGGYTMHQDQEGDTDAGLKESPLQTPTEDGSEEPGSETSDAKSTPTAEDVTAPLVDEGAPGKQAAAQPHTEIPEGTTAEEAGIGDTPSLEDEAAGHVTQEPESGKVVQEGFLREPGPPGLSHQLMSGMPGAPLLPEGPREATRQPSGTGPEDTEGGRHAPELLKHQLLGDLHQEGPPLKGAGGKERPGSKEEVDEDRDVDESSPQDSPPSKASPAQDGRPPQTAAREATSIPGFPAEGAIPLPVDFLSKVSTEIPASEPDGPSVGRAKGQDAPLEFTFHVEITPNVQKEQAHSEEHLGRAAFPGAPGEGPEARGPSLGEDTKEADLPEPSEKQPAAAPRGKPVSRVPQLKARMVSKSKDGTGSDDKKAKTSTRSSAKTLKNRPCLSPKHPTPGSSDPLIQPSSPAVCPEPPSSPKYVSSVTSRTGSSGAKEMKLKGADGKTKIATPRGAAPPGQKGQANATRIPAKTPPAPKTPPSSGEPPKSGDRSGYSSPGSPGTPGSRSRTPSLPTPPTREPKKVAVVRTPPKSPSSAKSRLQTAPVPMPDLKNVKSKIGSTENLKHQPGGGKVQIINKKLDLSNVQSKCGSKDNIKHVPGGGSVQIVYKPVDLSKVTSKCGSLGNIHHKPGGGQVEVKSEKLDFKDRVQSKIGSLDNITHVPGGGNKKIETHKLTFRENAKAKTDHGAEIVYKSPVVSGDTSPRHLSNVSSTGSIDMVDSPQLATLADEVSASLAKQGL

| SMILES | Potency | activity, negative = inhibition |
| --- | --- | --- |
| O=C(O)CC/C(=C\c1ccccc1[N+](=O)[O-])c1nc2ccccc2s1 | inactive |  |
| C(=N/Nc1cc(N2CCOCC2)nc(N2CCOCC2)n1)/c1ccccc1 | inactive |  |
| Cc1cc(C)c2c(c1)SC1=NC(c3ccccc3)(C(F)(F)F)NC(=O)N12 (stereo not drawn) | inconclusive: 17.8 µM [inhibitor, partial curve] |  |
| Cc1nc2sc(C(c3ccco3)N3CCOCC3)c(O)n2n1 (stereo not drawn) | inconclusive: 17.8 µM [inhibitor, single point] |  |
| NS(=O)(=O)c1ccc(O)c(NC(=O)c2ccc([N+](=O)[O-])cc2)c1 | inconclusive: 44.7 µM [inhibitor, single point] |  |
| COc1ccc(-c2ccc(SCC(=O)Nc3cc(C)on3)nn2)cc1OC | inconclusive: 1.58 µM [inhibitor, full curve] |  |
| Cc1nc2ccccn2c1-c1ccnc(=S)[nH]1 | inconclusive: 15.8 µM [inhibitor, partial curve] |  |
| CCCCCCCCCCCCCCCC(=O)O[C@H](CC(=O)O)C[N+](C)(C)C | inconclusive: 20 µM [inhibitor, partial curve] |  |
| CCC(NC(=O)Nc1ccc(O)cc1)(C(F)(F)F)C(F)(F)F | inconclusive: 35.5 µM [inhibitor, single point] |  |
| COc1ccc(NC(=S)Nc2cccnc2)c(OC)c1 | inactive |  |
| CCOc1ccc(-c2cc(CCCC(=O)NCCC(C)C)no2)cc1 | inconclusive: 0.708 µM [inhibitor, full curve] |  |
| Cn1cc(Br)c(C(=O)Nc2sc3c(c2C#N)CCC3)n1 | inconclusive: 14.1 µM [inhibitor, single point] |  |
| COc1ccc(/C=C2/SC(=O)N(CCC(=O)Nc3ccc(C)cc3)C2=O)cc1OC | inconclusive: 3.16 µM [inhibitor, partial curve] |  |
| COc1ccc(N/C(=C(/C(Cl)=C(Cl)Cl)[N+](=O)[O-])n2nnc3ccccc32)cc1 | inconclusive: 12.6 µM [inhibitor, partial curve] |  |
| COc1ccc(N2CCN(CC(O)COc3ccccc3[N+](=O)[O-])CC2)cc1 (stereo not drawn) | inconclusive: 17.8 µM [inhibitor, single point] |  |
| CC1Cc2c(COc3ccccc3)nc3c(c2CO1)CN(CCOc1ccccc1)CC3 (stereo not drawn) |  | inactive: -18.2% [at 11.5 µM] |
| CN(Cc1ccccc1)c1nc(N)c([N+](=O)[O-])c(NCc2ccccc2)n1 | inconclusive: 17.8 µM [inhibitor, partial curve] |  |
| Cc1ccccc1CSCC(=O)N1CCN(c2ccccc2)CC1 | inconclusive: 20 µM [inhibitor, partial curve] |  |
| Cn1c(NC(=O)/C=C\c2ccccc2)cc(=O)n(C)c1=O | inactive |  |
| C=CCOc1ccc(/C=N/NC(=O)C(=O)Nc2ccccn2)cc1OC | inconclusive: 5.01 µM [inhibitor, partial curve] |  |
| O=C(N/N=C\c1ccc(-c2ccccc2[N+](=O)[O-])o1)C1COc2ccccc2O1 (stereo not drawn) | active: 12.6 µM |  |
| O=[N+]([O-])c1ccc(N2CCCC2)nc1 | inconclusive: 14.1 µM [inhibitor, partial curve] |  |
| Cn1cnnc1SCc1ccc(C(=O)N=Nc2c(O)n(C)c3ccccc23)cc1 | inconclusive: 12.6 µM [inhibitor, partial curve] |  |

| SMILES | Potency | activity, negative = inhibition |
| --- | --- | --- |
| CN(C)c1ccc(NC(=O)c2ccc(COc3cccc(Cl)c3)o2)cc1 | active: 11.2 µM |  |
| COC(=O)c1nc(NC(=O)C(C)(C)C)n[nH]1 | inconclusive: 17.8 µM [inhibitor, single point] |  |
| O=C(/C=C/c1cccc([N+](=O)[O-])c1)c1ccc2c(c1)OCCO2 | inconclusive: 10 µM [inhibitor, partial curve] |  |
| N#Cc1ccccc1NC(=O)C(=O)NCCc1csc(-c2ccc(C(F)(F)F)cc2)n1 | inactive |  |
| CCC(C)NC(=O)c1ccccc1NC(=O)c1ccc(CSc2ccccc2)cc1 (stereo not drawn) | inactive |  |
| Cc1ccn2c(=O)cc(COc3ccc(NC(=O)COc4ccccc4)cc3)nc2c1 | inconclusive: 1.58 µM [inhibitor, full curve] |  |
| COc1ccc(Nc2nc(Nc3ccc(OC)cc3)nc(SC3=NCCS3)n2)cc1 | inconclusive: 15.8 µM [inhibitor, partial curve] |  |
| COc1cccc(C(=O)Nc2ncc3c(n2)CC(c2ccc(OC)cc2OC)CC3=O)c1 (stereo not drawn) | inconclusive: 12.6 µM [inhibitor, partial curve] |  |
| CCC1=NN(C(=O)Cc2ccc([N+](=O)[O-])cc2)C(O)(c2ccc(Br)cc2)C1 (stereo not drawn) | inconclusive: 44.7 µM [inhibitor, single point] |  |
| CCOc1ccccc1NC(=O)C1CCN(S(=O)(=O)c2ccc3[nH]c(=O)ccc3c2)CC1 | inactive |  |
| CCOc1ccc(CCNC(=O)C2CCN(Cc3nc(-c4ccc(OC)c(OC)c4)oc3C)CC2)cc1OCC | inactive |  |
| Nc1nn2c(-c3ccccc3)cc(=O)[nH]c2c1N=Nc1ccc(Br)cc1 | active: 2.24 µM |  |
| CCC(=O)N1c2ccccc2CC1C(=O)NCc1cccc(OC)c1OC (stereo not drawn) | inactive |  |
| COc1cccc(-c2ccc(-c3noc(-c4ccccc4Br)n3)c(OC)n2)c1 | inconclusive: 0.282 µM [inhibitor, full curve, poor fit] |  |
| O=C1C=C(Nc2ccc(O)cc2)C(=O)c2ccccc21 | active: 12.6 µM |  |
| O=C(c1ccco1)N1CCN(c2nc3c(F)cc(F)cc3s2)CC1 | inconclusive: 6.31 µM [inhibitor, full curve] |  |
| COc1cc(SC)ccc1C(=O)Nc1ccc2c(c1)OCCO2 | inconclusive: 2.82 µM [inhibitor, full curve] |  |
| CC1(C)CCCN(C(=O)c2ccc3c(c2NCCO)C(=O)c2ccccc2C3=O)C1 | active: 14.1 µM |  |
| Cc1ccc(C(C[N+](=O)[O-])c2c(C)[nH]n(-c3ccccc3)c2=O)cc1 (stereo not drawn) | inconclusive: 20 µM [inhibitor, partial curve] |  |
| Cc1cccc(-n2c(O)c(C=NC3CCS(=O)(=O)C3)c3ccccc3c2=O)c1 (stereo not drawn) | inactive |  |
| COc1ccc(OC)c(NC(=O)c2ccc3c(SCC(=O)O)c4c(nc3c2)CCCC4)c1 | inconclusive: 15.8 µM [inhibitor, partial curve] |  |
| O=C(O)c1ncn(Cc2ccccc2)c1C(=O)O | inactive |  |
| Cc1cccc(CCNC(=O)c2ccc3c(c2)nc2n3CCC(C)C2)c1 (stereo not drawn) | inconclusive: 4.47 µM [inhibitor, partial curve] |  |

| SMILES | Potency | activity, negative = inhibition |
| --- | --- | --- |
| CCOC(=O)c1c(NC(=O)/C=C/C(=O)O)sc(C)c1-c1ccc(C(C)(C)C)cc1 | inconclusive: 35.5 µM [inhibitor, single point] |  |
| Oc1ccc(NCc2cccc(OCc3ccc(F)cc3)c2)cc1 | active: 22.4 µM |  |
| COc1ccc(-c2nnc(SCC(=O)Nc3cc(OC)ccc3OC)nc2-c2ccc(OC)cc2)cc1 | inconclusive: 20 µM [inhibitor, single point] |  |
| COc1ccccc1CN(Cc1cc2cc(C)ccc2[nH]c1=O)Cc1nnnn1Cc1ccco1 | inactive |  |
| COC(=O)c1ccc(NC(=O)c2cc(Cl)ccc2OC)cc1 | inactive |  |
| CC(C)(C)c1ccc(OCC(=O)N/N=C/c2ccc(N3CCOCC3)cc2)cc1 | inconclusive: 14.1 µM [inhibitor, partial curve] |  |
| Cc1nonc1C(=O)N/N=C/c1ccc([N+](=O)[O-])o1 | inconclusive: 31.6 µM [inhibitor, single point] |  |
| c1coc(CN=C2NC(=NCc3ccco3)c3ccccc32)c1 | inconclusive: 25.1 µM [inhibitor, partial curve] |  |
| CCCOc1ccccc1NC(=O)c1c(-c2ccccc2)noc1C | inconclusive: 12.6 µM [inhibitor, partial curve] |  |
| N#Cc1c(-c2ccccc2)cc(C2CC2)nc1N | inconclusive: 17.8 µM [inhibitor, single point] |  |
| CC1Cc2ccccc2N1CC(=O)Nc1ccc2c(c1)OC(F)(F)O2 (stereo not drawn) | inconclusive: 39.8 µM [inhibitor, single point] |  |
| O=C(COc1ccc2ccccc2c1Br)Nc1ncn[nH]1 | inconclusive: 35.5 µM [inhibitor, single point] |  |
| CCCCCCOC(=O)C1(O)CC2OC1(C)n1c3ccccc3c3c4c(c5c6ccccc6n2c5c31)C(=O)NC4 (stereo not drawn) | inactive |  |
| Cc1csc(NC(=O)c2nc3nc(C)cc(C)n3n2)n1 | inactive |  |
| CCc1ccc(S(=O)(=O)Nc2ccc(O)c3c(=O)cc(-c4ccccc4Cl)oc23)cc1 | inactive |  |
| COC(=O)c1c(SC)nc2ccccc2c1OCc1ccc(Br)cc1 | inconclusive: 8.91 µM [inhibitor, partial curve] |  |
| O=c1c2c(nc3cc(-c4ccccc4Cl)[nH]n13)CCS2 | inconclusive: 22.4 µM [inhibitor, partial curve] |  |
| CC1=CC2=NC(=O)/C(=C\c3ccc(OC(=O)c4ccco4)cc3)C(=N)N2O1 | inconclusive: 12.6 µM [inhibitor, partial curve, poor fit] |  |
| COc1ccccc1NC(=O)Nc1ccc2c(c1)nc(C)n2C | inconclusive: 14.1 µM [inhibitor, partial curve, poor fit] |  |
| CCC(=O)N/C(N)=N/c1nc(C)c2cc(C)c(C)cc2n1 | inconclusive: 0.891 µM [inhibitor, full curve] |  |
| C=C(CC)C(=O)c1ccc(OCC(=O)O)c(Cl)c1Cl | inconclusive: 20 µM [inhibitor, partial curve] and inconclusive: 8.91 µM [inhibitor, full curve, poor fit] |  |
| CC(C)(C)c1nnc2sc(SCC(=O)c3ccccc3)nn2c1=O | inconclusive: 14.1 µM [inhibitor, partial curve] |  |
